# The supplement of paper PMC3334620
# In all, about 33,000 sequences were measured (“E-score (-0.5 to 0.5)”: median about -0.041, highest 2% from about 0.37 on). The list shows a part of the results.
# Target: T1, Ecm22 (UniProt Q05958)
# T1 sequence: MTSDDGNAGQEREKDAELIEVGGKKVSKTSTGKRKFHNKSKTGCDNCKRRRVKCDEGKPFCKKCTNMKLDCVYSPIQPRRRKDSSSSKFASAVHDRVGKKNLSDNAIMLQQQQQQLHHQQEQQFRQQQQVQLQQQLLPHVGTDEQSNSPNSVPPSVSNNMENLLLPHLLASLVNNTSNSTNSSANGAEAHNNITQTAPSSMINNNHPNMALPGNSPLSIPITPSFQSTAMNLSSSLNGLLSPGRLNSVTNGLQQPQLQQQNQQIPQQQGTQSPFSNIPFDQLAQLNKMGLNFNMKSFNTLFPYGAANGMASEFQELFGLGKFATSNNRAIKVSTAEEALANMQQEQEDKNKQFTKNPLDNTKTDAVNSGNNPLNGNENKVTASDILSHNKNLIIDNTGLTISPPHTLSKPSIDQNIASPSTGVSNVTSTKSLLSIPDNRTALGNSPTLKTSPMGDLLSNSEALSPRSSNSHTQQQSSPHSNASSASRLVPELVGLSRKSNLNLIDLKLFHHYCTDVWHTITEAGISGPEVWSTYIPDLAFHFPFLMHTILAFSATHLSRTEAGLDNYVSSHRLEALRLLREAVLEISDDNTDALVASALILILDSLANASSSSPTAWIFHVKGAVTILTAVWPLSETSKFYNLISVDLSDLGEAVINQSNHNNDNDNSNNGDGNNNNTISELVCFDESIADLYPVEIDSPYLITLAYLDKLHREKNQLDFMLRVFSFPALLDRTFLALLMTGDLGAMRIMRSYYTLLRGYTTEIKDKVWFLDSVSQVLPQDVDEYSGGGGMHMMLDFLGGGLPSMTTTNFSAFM
# Assay: PBM E-score (8-mer binding enrichment) (E-score (-0.5 to 0.5)); higher = stronger / more preferred TF binding; most listed sequences are background and not binding sites
# Conditions: protein concentration: 200 nM; construct: GST-full length
# Outline: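 Yeast transcription factors carrying a GST tag, as full-length proteins or DNA-binding domains, were produced by PURExpress in vitro transcription/translation. About 100-200 nM protein was applied to universal all-10-mer Agilent arrays, double-stranded by primer extension on fresh or once-stripped slides. Bound protein was detected with fluorescent anti-GST, and scans were normalised with masliner. The Universal PBM Analysis Suite gave each ungapped eight-base word, pooled with its reverse complement, an E-score, a modified Wilcoxon-Mann-Whitney statistic.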
row,Sequence,PBM E-score
1,AATTCCGT,0.0301
2,CCCCGACA,-0.251
3,ACGTACCT,0.213
4,CCTCACGC,-0.123
5,CAATTCAC,-0.00451
6,TGAGCACA,-0.253
7,ACGCATGA,0.00527
8,CGGTGCAA,0.0841
9,TGCCGCAA,-0.0595
10,ACCAAGTC,0.00779
11,CTCACCAG,-0.213
12,GCGCCAGC,-0.0914
13,ACAGGGGG,-0.239
14,AAATGGAT,-0.0975
15,CAACCAGC,-0.0694
16,ATCCCGGA,-0.24
17,CGAGTATC,0.246
18,ATTTCTCG,0.229
19,GGGGATTA,-0.0927
20,TGCAAAAA,-0.0209
21,ATCGTGGC,-0.104
22,CCGGTTGA,-0.108
23,GGCTGATA,-0.0685
24,AGGAGCGC,0.0125
25,ACGAGCGG,0.386

row,Sequence,PBM E-score
1,GAATTACC,-0.0182
2,GGCTGCCC,-0.0698
3,GTACGGAC,0.372
4,AGACGACC,0.0158
5,AAAGAAAG,0.0385
6,AATTCTCA,-0.247
7,AGCGACCT,0.0578
8,GCTAGTCC,-0.0725
9,AATAGCAT,-0.215
10,AGCTCTGA,-0.212
11,AACCAGGT,-0.215
12,ACTTTCGC,0.0123
13,AGGGCCGC,-0.255
14,AACCGCGC,-0.0112
15,GAAGTTCA,-0.152
16,GAAACAAA,-0.0214
17,CTAGCTAG,-0.192
18,CGATGCGA,0.272
19,AGGTGGAG,-0.362
20,CAGGCATC,-0.102
21,CCAAAAGC,-0.151
22,AGCATACC,-0.0196
23,AGGATTAT,-0.0588
24,ACAACTCG,0.259
25,ATCGAACC,0.0684

row,Sequence,PBM E-score
1,ACAGTACC,-0.136
2,CGGATGGA,0.083
3,GCCTTATA,-0.00121
4,AATGATCT,-0.00115
5,AATATGTG,0.0912
6,CCTTATAA,-0.116
7,CGTCAAAG,0.0161
8,TCAGCGGA,0.0271
9,CGAAAACG,0.24
10,CATTCATC,-0.193
11,GTGTGGGA,-0.0804
12,AGCATGAG,-0.145
13,CGTTTCAG,0.189
14,CATTTACC,-0.0682
15,CACAGTCA,-0.133
16,ACGTACCC,0.295
17,CCGCGAAA,-0.0377
18,ACTTAATA,-0.0103
19,AGCCGTGC,-0.144
20,CAAAGCTA,0.00269
21,ACGCCAAA,0.0175
22,GGATTGAC,-0.064
23,GTCGTACA,0.484
24,CCACACGG,-0.029
25,ATGCGGAA,0.164

row,Sequence,PBM E-score
1,AACACTAC,0.0419
2,GAGATTTA,-0.0844
3,CGGCACAG,0.0624
4,CACTATGC,0.0833
5,AGAATCGC,0.114
6,GACGATAA,0.0921
7,CTTAATGA,0.0476
8,AAATTTAT,0.159
9,CCGACTAG,-0.0411
10,AGCGGCAT,0.0603
11,GCATTTCC,-0.0374
12,GTCCAGGA,-0.0186
13,TTCACCAA,-0.0582
14,AGTATCAC,0.00643
15,AATCACGG,-0.0233
16,GATCTTCC,-0.0798
17,AGAAGCCA,-0.0549
18,ATGAGGAG,-0.229
19,CCCGTCAC,-0.12
20,ATCGATGC,0.114
21,ATTGCATA,-0.0382
22,ATGATGCA,0.118
23,CCGCAGAG,-0.28
24,AACACGAG,0.234
25,ACTGATAT,0.0513

row,Sequence,PBM E-score
1,AGCTAACC,-0.0463
2,AAGCATGG,-0.307
3,ACACAAAT,0.135
4,CAACACTG,-0.03
5,CGCTACCC,-0.132
6,AAACTGCC,0.167
7,CGGCGATA,0.134
8,AGTACAAA,0.0199
9,CGTTCAGA,0.325
10,CGATAACA,0.0212
11,ATATAGCA,0.0374
12,GCTACACC,-0.189
13,ACACGCGG,0.05
14,CAAACCAA,0.0423
15,ACATGTAG,-0.112
16,GCCTGGAA,-0.251
17,GATCGGAC,0.0968
18,AGGTGGTC,-0.226
19,ATATGCAC,0.117
20,GTTACCCA,-0.00473
21,AAGTATCA,-0.115
22,ATCGTTGG,-0.0634
23,AAGATTAC,-0.063
24,GCGATAGA,0.168
25,ACCTGAGG,-0.194

row,Sequence,PBM E-score
1,GCTAATAC,0.0118
2,CTCTTCCA,-0.0818
3,ACATTATA,0.0164
4,CACGGGGA,-0.216
5,ATTACAAG,-0.158
6,ATAACGGG,-0.0278
7,TTGATAAA,0.0337
8,GACAAGTC,0.0831
9,ATGAATCA,-0.0528
10,CCGTATCA,0.354
11,AGGACGCC,-0.0366
12,CTAATCAA,-0.195
13,CGTCTAAC,-0.0542
14,ATTAAGGC,-0.102
15,CACTTTAC,0.132
16,CAGCGAAA,0.116
17,ATGGGGTG,-0.285
18,GGTTACGA,0.381
19,GTGGCCTA,-0.134
20,CCCTTTCA,-0.267
21,GGGTGGCA,-0.246
22,GGTCCCAC,0.0362
23,AGACGCGC,0.115
24,CCAGGCGG,-0.0617
25,CGACCCGA,0.198

row,Sequence,PBM E-score
1,AAGAATGT,-0.104
2,AGGTCGAA,-0.0216
3,CATACACG,0.142
4,CTGCAGGA,-0.245
5,AGGCGGTA,-0.00409
6,CGAGCTCA,0.266
7,CAGGTAAG,0.0463
8,CCATAAAC,0.105
9,GTAAGCGA,0.335
10,GAATGACA,-0.325
11,TCCGAGAA,0.265
12,AATAGCGT,0.0126
13,AAGGGCAG,-0.243
14,ACAGTAAA,0.0596
15,GGATTGGA,-0.12
16,CGACTTAC,0.184
17,GGCAATTA,-0.121
18,GAGTGACC,0.0319
19,CCCACCTA,-0.333
20,TATAACGA,0.278
21,ATCGGCTA,0.0697
22,ACGAGTGC,0.319
